Laboratory results: the antibiotic and cytotoxicity screens of Wong et al. (2023)
Some of the results follow.

Each compound was assayed on S. aureus RN4220 (assay: growth inhibition call (relative growth <= 0.2)). Settings: 50 µM.

Growth inhibition call, inactive:
COCC(=O)Nc1ccc2c(c1)C(=O)N(C)[C@H]1CC[C@@H](CC(=O)NC3Cc4ccccc4C3)O[C@@H]1CO2
COc1ccc([C@@H]([C@H](Cc2ccccc2)OC(C)=O)N2C[C@H](CC(=O)N(C)C)[C@@H]3[C@H]([C@@H]2Cc2ccccc2)N(C)O[C@H]3c2ccccc2)cc1
C[C@@H]1CN([C@H](C)CO)C(=O)c2cc(NC(=O)CCCN(C)C)ccc2O[C@@H]1CN(C)S(=O)(=O)c1cccs1
Nc1cc(=O)nc(N)[nH]1
C[C@H](CO)N1C[C@H](C)[C@H](CN(C)C(=O)NC2CCCCC2)Oc2ccc(NC(=O)Nc3ccc(C(F)(F)F)cc3)cc2CC1=O
C[C@H]1CN([C@@H](C)CO)C(=O)Cc2cc(NC(=O)CCCCCC(=O)Nc3ccccc3N)ccc2O[C@@H]1CN(C)Cc1ccc(C(F)(F)F)cc1
C[C@@H]1CN([C@H](C)CO)C(=O)c2cccc(NC(=O)c3ccncc3)c2O[C@@H]1CN(C)Cc1ccc(-c2ccccc2)cc1
COc1ccc(C#Cc2ccc([C@H]3[C@@H](CO)N4CCCCN(S(=O)(=O)c5cn(C)cn5)C[C@H]34)cc2)cc1
O=C1NCCC[C@@H]1C(=O)N1CCCCC1
COc1ccc(NC(=O)N(C)C[C@H]2OCCCC[C@@H](C)Oc3ccc(NS(=O)(=O)c4ccccc4)cc3C(=O)N([C@@H](C)CO)C[C@H]2C)cc1
C[C@H]1CN([C@@H](C)CO)C(=O)Cc2cc(NC(=O)NC3CCCCC3)ccc2O[C@@H]1CN(C)C(=O)Nc1cccc2ccccc12
COc1ccc(CN(C)C[C@H]2OCCCC[C@@H](C)Oc3ccc(NS(=O)(=O)c4ccc(C)cc4)cc3C(=O)N([C@@H](C)CO)C[C@@H]2C)cc1
COc1ccc(NC(=O)Nc2cccc3c2O[C@H](CN(C)C(=O)Nc2ccc(C(F)(F)F)cc2)[C@@H](C)CN([C@@H](C)CO)C3=O)cc1
COc1ccc(NC(=O)N(C)C[C@@H]2Oc3ccc(NC(=O)CCN4CCOCC4)cc3C(=O)N([C@@H](C)CO)C[C@@H]2C)cc1
Cc1ccc(S(=O)(=O)N(C)C[C@H]2OCCCC[C@@H](C)Oc3ccc(NC(=O)Nc4ccc(C(F)(F)F)cc4)cc3C(=O)N([C@@H](C)CO)C[C@H]2C)cc1
NCc1ccc2c(c1)CCO2
O=C(C[C@@H]1C[C@@H]2c3cc(NC(=O)c4ccc5c(c4)OCO5)ccc3O[C@@H]2[C@H](CO)O1)NCc1ccccn1
C[C@H]1CN([C@@H](C)CO)C(=O)c2cc(NC(=O)Nc3ccc(F)cc3)ccc2O[C@@H]1CN(C)Cc1ccc(C(F)(F)F)cc1
C[C@H]1CCCCO[C@@H](CN(C)CC2CC2)[C@@H](C)CN([C@@H](C)CO)C(=O)c2cc(NC(=O)Nc3ccc(F)cc3)ccc2O1
O=C(C[C@@H]1CC[C@H](NC(=O)CN2CCOCC2)[C@@H](CO)O1)NC1CCC1
COCC#Cc1cnc2c(c1)C(=O)N([C@@H](C)CO)C[C@H](C)[C@H](CN(C)C(C)=O)O2
C[C@@H]1CCCCO[C@@H](CN(C)C(=O)Nc2ccc(F)cc2)[C@@H](C)CN([C@H](C)CO)C(=O)c2cc(NC(=O)NC3CCCCC3)ccc2O1
O=C1CCCSc2ccccc21
CCC(CC)C(=O)N1c2ccccc2Sc2ccccc21
O=C(C[C@@H]1C[C@@H]2c3cc(NC(=O)c4ccc5c(c4)OCO5)ccc3O[C@@H]2[C@H](CO)O1)NCC(F)(F)F
C[C@@H]1CN([C@@H](C)CO)C(=O)c2cc(NS(=O)(=O)c3cn(C)cn3)ccc2O[C@@H](C)CCCCO[C@H]1CN(C)C(=O)Nc1cccc2ccccc12
C[C@@H]1CN([C@@H](C)CO)C(=O)c2cc(NC(=O)Nc3ccc(F)cc3)ccc2O[C@@H]1CN(C)CC1CCCCC1
Cc1noc(C)c1NC(=O)N[C@H]1C=C[C@H](CC(=O)N2CCN(C)CC2)O[C@H]1CO
C[C@H](CO)N1C[C@H](C)[C@H](CN(C)S(=O)(=O)c2cccs2)OCCCC[C@H](C)Oc2ccc(NC(=O)Nc3ccc(F)cc3)cc2C1=O
Cc1ccc(OC(=O)N(C)C[C@H]2OCc3ccccc3-c3ccccc3C(=O)N([C@H](C)CO)C[C@H]2C)cc1
Cc1ccc(=O)n(CC(=O)O)n1
C[C@@H]1CN([C@@H](C)CO)C(=O)c2cccc(NS(=O)(=O)c3cn(C)cn3)c2O[C@H]1CN(C)Cc1ccncc1
C[C@@H]1CN([C@H](C)CO)C(=O)c2cc(NC(=O)Nc3ccc(C(F)(F)F)cc3)ccc2O[C@H]1CN(C)Cc1ccc(Oc2ccccc2)cc1
CCC(=O)O[C@H]1[C@H](O[C@@H]2[C@@H](C)[C@H](O[C@H]3C[C@@](C)(OC)[C@@H](O)[C@H](C)O3)[C@@H](C)C(=O)O[C@H](CC)[C@@](C)(O)[C@H](O)[C@@H](C)C(=O)[C@H](C)C[C@@]2(C)O)O[C@H](C)C[C@@H]1N(C)C
N#CCC(=O)N1CCSCC1
COc1ccc(cc1)S(=O)(=O)N1CC[C@]2(CC1)CN([C@@H](CO)c1c2c2ccc(cc2n1C)OC)C(=O)CN(C)C
C[C@@H]1CN([C@H](C)CO)C(=O)c2cc(NC(=O)Nc3ccc(C(F)(F)F)cc3)ccc2O[C@H]1CN(C)C(=O)Nc1ccc2c(c1)OCO2
O.O=C(O)C1C(O)CCC2CN3CCc4c([nH]c5ccccc45)C3CC21 (centres undefined)
C[C@H]1CN([C@@H](C)CO)C(=O)Cc2cc(NC(=O)NC3CCCCC3)ccc2O[C@@H]1CN(C)Cc1ccc(Oc2ccccc2)cc1
